Source: the supplement of paper PMC4166925
± gives the standard deviation of the averaged measurements. Over roughly 33,000 sequences, “E-score (dimensionless, -0.5 to 0.5)” has its median near -0.049; the highest 2% begin near 0.37. The list shows a part of the results.

system: T1, PmTbr T-box DNA-binding domain (GST fusion); assay: PBM E-score of 8-mer (E-score (dimensionless, -0.5 to 0.5)); Tbr is Tbrain of the sea star Patiria miniata (Pm) or the sea urchin Strongylocentrotus purpuratus (Sp); higher = stronger binding preference; most listed sequences are background and not binding sites; details: the construct has about 5 more residues each side
T1 sequence: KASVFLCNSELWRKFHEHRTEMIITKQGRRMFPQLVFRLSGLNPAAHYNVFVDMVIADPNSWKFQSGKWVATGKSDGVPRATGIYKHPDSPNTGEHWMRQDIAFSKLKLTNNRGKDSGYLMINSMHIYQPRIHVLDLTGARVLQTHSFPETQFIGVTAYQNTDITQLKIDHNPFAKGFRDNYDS
In short: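 Universal Agilent oligonucleotide arrays, made double-stranded by primer extension, were incubated with 200 nM GST-fused Tbr T-box DNA-binding domain in PBS (pH 7.5). The protein was expressed in BL21 E. coli at 20 °C and purified by glutathione affinity chromatography. After scanning and quantification, the Universal PBM Analysis Suite assigned an enrichment E-score to each ungapped 8-mer, averaged over duplicate arrays.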

Sequence	PBM E-score of 8-mer
AGTTCACC	-0.0448 ± 0.0017
GTTTGGTA	0.0874 ± 0.0073
CCTCACAG	0.127 ± 0.049
ATTCTTCG	-0.0422 ± 0.078
AAAGCCTT	-0.0617 ± 0.095
CTGCATAA	-0.11 ± 0.064
CAATGATA	-0.0259 ± 0.03
ATTCGATG	-0.311 ± 0.021
ATCGCTCA	-0.2 ± 0.026
ATTTGAGC	-0.18 ± 0.017
ACAGCCCA	-0.0835 ± 0.0019
CATAGGTA	0.0537 ± 0.043
ATGACATA	-0.139 ± 0.032
CGATGCAA	-0.16 ± 0.013
CCGACCGG	0.00967 ± 0.02
AGTGTGCA	0.253 ± 0.008
CAAGACGA	-0.158 ± 0.014
ACGTTGAT	-0.2 ± 0.013
CTGGCGGC	-0.168 ± 0.018
GTAGCGTA	-0.112 ± 0.06
TCAATGGA	-0.0992 ± 0.0078
ATACTTTG	-0.138 ± 0.041
GGTCGTGA	0.0269 ± 0.06
GAGAACCC	-0.0803 ± 0.011
AGATGCAG	-0.225 ± 0.03

Sequence	PBM E-score of 8-mer
AATTATCT	0.113 ± 0.077
CTCTTATA	-0.107 ± 0.013
CAGTGCAC	-0.00583 ± 0.034
GACCCCAC	-0.0873 ± 0.063
ACCTGACC	0.00515 ± 0.051
AAAAACAC	0.313 ± 0.025
AAATTGTG	0.112 ± 0.013
AAGGCTGA	0.0132 ± 0.06
AAGAACAC	0.0781 ± 0.027
CTGGTTTC	-0.041 ± 0.0045
ACCGAACT	-0.127 ± 0.046
AGCACAAC	0.0533 ± 0.013
CCGCGCAC	0.12 ± 0.024
AATCAAAA	-0.152 ± 0.036
GAGGCAGA	0.00581 ± 0.019
CCCGCCGG	-0.195 ± 0.014
CAATTAAC	0.11 ± 0.054
ACGTAGTC	-0.1965 ± 0.0019
ACGCAGCC	-0.155 ± 0.031
AAATTAGT	-0.152 ± 0.13
AAAAGCCG	-0.00105 ± 0.076
CCAGTGCC	-0.103 ± 0.0034
ATTTTGCA	0.208 ± 0.063
AGCCGTAT	-0.0845 ± 0.061
GACCGGCC	-0.161 ± 0.029

Sequence	PBM E-score of 8-mer
CCTATAAA	-0.29 ± 0.0059
CGGGAAAA	0.102 ± 0.014
GCCGGCGA	0.119 ± 0.0044
GACAACAA	0.194 ± 0.046
AGCGGAAG	-0.0179 ± 0.012
AGAGATAT	0.093 ± 0.016
GAGTGCAC	-0.214 ± 0.037
AATTTTCC	-0.0893 ± 0.04
AGTGAAGA	0.00749 ± 0.058
GGGAGCCC	-0.25 ± 0.0022
AACATTTA	-0.028 ± 0.082
AGCCATGA	-0.156 ± 0.014
CAGATTAG	-0.0836 ± 0.049
CTGTTGTA	0.104 ± 0.017
AAAGAACA	-0.146 ± 0.029
TAACTTCA	0.052 ± 0.02
GATGTCGC	0.187 ± 0.049
GATTGGGA	-0.274 ± 0.015
CTCATACC	-0.00948 ± 0.008
CTGGTGGC	0.0309 ± 0.079
CGCTAGTA	0.13 ± 0.0034
AATCTCAG	0.052 ± 0.04
GCTTCACA	0.301 ± 0.014
ACTTCTTG	0.0919 ± 0.017
GCTCAAAC	-0.146 ± 0.046

Sequence	PBM E-score of 8-mer
GCGAGCAC	0.0386 ± 0.07
ATTATGAA	-0.118 ± 0.062
AGTCGCAT	-0.00609 ± 0.062
CGTTTTCA	0.114 ± 0.026
GTGTTCGA	0.21 ± 0.011
AAACGTCC	-0.00611 ± 0.059
CCGCCCCG	-0.211 ± 0.11
ATAAAATA	-0.067 ± 0.21
AAGTAGAT	-0.101 ± 0.098
ACGATGCG	0.114 ± 0.04
CGCTCACG	0.174 ± 0.044
ACTGCCTG	-0.0798 ± 0.053
ACGTGAAT	-0.0548 ± 0.00093
AACGTACG	0.155 ± 0.01
GCGGCTAC	-0.0566 ± 0.023
CGTCTACC	-0.252 ± 0.01
AGGTGGAC	-0.0616 ± 0.046
GTTCCGCA	-0.0322 ± 0.03
GAACGGTA	-0.211 ± 0.043
AGGGGTTC	-0.0761 ± 0.048
AATTGGCA	0.247 ± 0.036
ATCTTGAC	0.127 ± 0.016
CCAGTACA	-0.108 ± 0.083
CGTGAATC	0.243 ± 0.013
GGTCCAGA	-0.231 ± 0.024

Sequence	PBM E-score of 8-mer
AGGGACGA	0.0466 ± 0.051
CAAGTAGA	-0.12 ± 0.042
CCGGCAAC	0.21 ± 0.0026
TGCATTAA	-0.0738 ± 0.016
TCTTACCA	-0.0462 ± 0.011
CTAGGAAA	-0.219 ± 0.013
GAGCTATC	-0.0841 ± 0.0084
CCTTATGC	-0.139 ± 0.041
ATGACTGG	-0.237 ± 0.071
CCGTCCCG	-0.207 ± 0.027
GCGGCGGA	0.00211 ± 0.073
GAGATGGC	0.0247 ± 0.011
GTCCAGAA	-0.329 ± 0.017
CACAGTTC	0.18 ± 0.01
CACTTTCG	0.258 ± 0.004
CGTCACCC	0.373 ± 0.021
CATAGCGA	-0.0501 ± 0.0092
GTCCCTGA	-0.247 ± 0.0097
AGGTGGGG	0.217 ± 0.009
AAAATGGC	-0.173 ± 0.098
GAACGAAC	-0.0431 ± 0.072
AAAGTCCA	-0.316 ± 0.0051
AATCCCTA	-0.0162 ± 0.033
AGGGCTAG	-0.175 ± 0.04
ACTATCCT	-0.11 ± 0.04

Sequence	PBM E-score of 8-mer
AGCCTGGA	-0.151 ± 0.11
AGGGTCAG	-0.142 ± 0.12
AGACAGAC	-0.243 ± 0.034
CTCAACTA	-0.0737 ± 0.013
GTAGACTA	-0.16 ± 0.024
ATATAGAA	-0.374 ± 0.022
ACTTACCA	0.112 ± 0.0077
CCTTGGGA	-0.179 ± 0.014
TAATAGAA	-0.0744 ± 0.024
AGTCGAGG	0.0125 ± 0.11
ACCCCGAC	-0.00494 ± 0.0064
CGGGCTAA	-0.235 ± 0.017
AGTTGTCA	0.4064 ± 0.0017
TAGACACA	0.111 ± 0.0034
TCTATCCA	-0.354 ± 0.0079
ACTTATCA	0.239 ± 0.046
ATAAGGGG	-0.0488 ± 0.062
TAATGCCA	-0.0579 ± 0.039
GCCTCAAC	-0.158 ± 0.024
GAATCAAA	-0.116 ± 0.044
ATACTTAC	-0.0979 ± 0.024
CGATGCAG	-0.104 ± 0.0024
ACTTCCTG	-0.0233 ± 0.048
AAGAAGAA	-0.132 ± 0.039
GCGATATA	0.141 ± 0.026

Sequence	PBM E-score of 8-mer
ATGTCGCA	0.254 ± 0.049
CGGAACAC	0.0348 ± 0.042
AGTCGTTG	0.0477 ± 0.079
ATACGCGC	0.116 ± 0.03
CAGAGGGA	-0.256 ± 0.08
CCTACCGC	0.0907 ± 0.044
AGGTGTTC	0.4091 ± 0.0032
CAGGGGGG	-0.169 ± 0.023
AGCTATTG	-0.026 ± 0.011
GATAGAGC	0.0387 ± 0.035
TGCCAAAA	0.236 ± 0.065
AAAGTTCA	-0.0127 ± 0.1
ACTTTACG	0.121 ± 0.0063
CGTGGGAA	0.189 ± 0.015
GTATTAAC	-0.00695 ± 0.0072
TAGCGGAA	-0.0364 ± 0.028
ATCCACTG	-0.21 ± 0.0065
ACAGCTAG	0.231 ± 0.017
ACCTTGCT	0.202 ± 0.046
ATATGGAT	-0.142 ± 0.012
CGGCACGC	0.123 ± 0.0062
GGGGATCA	-0.265 ± 0.033
